From PubChem BioAssay AID504333 (National Center for Advancing Translational Sciences (NCATS), 2011)
In all, about 360,000 compounds went through this assay and about 16,000 (4.4%) were called active. The shares of active, inactive and inconclusive entries below differ from those in the screen. Calls follow the shape of the dose curve; as a rule, active = well fitted inhibition curve with a large enough effect; inconclusive = small, poorly fitted or top-dose-only effect; inactive = no such curve, though single readings can be large or run the other way. Potencies beside an inconclusive call are fits to weak or partial responses and may not hold up.
% is scaled to controls: 0 for no effect and ±100 for the full control effect; potency is read from the fitted curve at half-maximal effect; tags tell the direction and shape of the fitted curve.
Also: nearly all actives have a fitted effect of over 60% in size.

The compounds below were run against Bromodomain adjacent to zinc finger domain protein 2B (Homo sapiens) (UniProt Q9UIF8) (assay: qHTS Assay for Inhibitors of BAZ2B). Conditions: AlphaScreen BAZ2B-H3K14Ac peptide displacement; activity change, negative = inhibition: at 114 µM (top of the series).
UniProt Q9UIF8, sequence (Q9UIF8 whole entry, looked up, the tested form may be a part): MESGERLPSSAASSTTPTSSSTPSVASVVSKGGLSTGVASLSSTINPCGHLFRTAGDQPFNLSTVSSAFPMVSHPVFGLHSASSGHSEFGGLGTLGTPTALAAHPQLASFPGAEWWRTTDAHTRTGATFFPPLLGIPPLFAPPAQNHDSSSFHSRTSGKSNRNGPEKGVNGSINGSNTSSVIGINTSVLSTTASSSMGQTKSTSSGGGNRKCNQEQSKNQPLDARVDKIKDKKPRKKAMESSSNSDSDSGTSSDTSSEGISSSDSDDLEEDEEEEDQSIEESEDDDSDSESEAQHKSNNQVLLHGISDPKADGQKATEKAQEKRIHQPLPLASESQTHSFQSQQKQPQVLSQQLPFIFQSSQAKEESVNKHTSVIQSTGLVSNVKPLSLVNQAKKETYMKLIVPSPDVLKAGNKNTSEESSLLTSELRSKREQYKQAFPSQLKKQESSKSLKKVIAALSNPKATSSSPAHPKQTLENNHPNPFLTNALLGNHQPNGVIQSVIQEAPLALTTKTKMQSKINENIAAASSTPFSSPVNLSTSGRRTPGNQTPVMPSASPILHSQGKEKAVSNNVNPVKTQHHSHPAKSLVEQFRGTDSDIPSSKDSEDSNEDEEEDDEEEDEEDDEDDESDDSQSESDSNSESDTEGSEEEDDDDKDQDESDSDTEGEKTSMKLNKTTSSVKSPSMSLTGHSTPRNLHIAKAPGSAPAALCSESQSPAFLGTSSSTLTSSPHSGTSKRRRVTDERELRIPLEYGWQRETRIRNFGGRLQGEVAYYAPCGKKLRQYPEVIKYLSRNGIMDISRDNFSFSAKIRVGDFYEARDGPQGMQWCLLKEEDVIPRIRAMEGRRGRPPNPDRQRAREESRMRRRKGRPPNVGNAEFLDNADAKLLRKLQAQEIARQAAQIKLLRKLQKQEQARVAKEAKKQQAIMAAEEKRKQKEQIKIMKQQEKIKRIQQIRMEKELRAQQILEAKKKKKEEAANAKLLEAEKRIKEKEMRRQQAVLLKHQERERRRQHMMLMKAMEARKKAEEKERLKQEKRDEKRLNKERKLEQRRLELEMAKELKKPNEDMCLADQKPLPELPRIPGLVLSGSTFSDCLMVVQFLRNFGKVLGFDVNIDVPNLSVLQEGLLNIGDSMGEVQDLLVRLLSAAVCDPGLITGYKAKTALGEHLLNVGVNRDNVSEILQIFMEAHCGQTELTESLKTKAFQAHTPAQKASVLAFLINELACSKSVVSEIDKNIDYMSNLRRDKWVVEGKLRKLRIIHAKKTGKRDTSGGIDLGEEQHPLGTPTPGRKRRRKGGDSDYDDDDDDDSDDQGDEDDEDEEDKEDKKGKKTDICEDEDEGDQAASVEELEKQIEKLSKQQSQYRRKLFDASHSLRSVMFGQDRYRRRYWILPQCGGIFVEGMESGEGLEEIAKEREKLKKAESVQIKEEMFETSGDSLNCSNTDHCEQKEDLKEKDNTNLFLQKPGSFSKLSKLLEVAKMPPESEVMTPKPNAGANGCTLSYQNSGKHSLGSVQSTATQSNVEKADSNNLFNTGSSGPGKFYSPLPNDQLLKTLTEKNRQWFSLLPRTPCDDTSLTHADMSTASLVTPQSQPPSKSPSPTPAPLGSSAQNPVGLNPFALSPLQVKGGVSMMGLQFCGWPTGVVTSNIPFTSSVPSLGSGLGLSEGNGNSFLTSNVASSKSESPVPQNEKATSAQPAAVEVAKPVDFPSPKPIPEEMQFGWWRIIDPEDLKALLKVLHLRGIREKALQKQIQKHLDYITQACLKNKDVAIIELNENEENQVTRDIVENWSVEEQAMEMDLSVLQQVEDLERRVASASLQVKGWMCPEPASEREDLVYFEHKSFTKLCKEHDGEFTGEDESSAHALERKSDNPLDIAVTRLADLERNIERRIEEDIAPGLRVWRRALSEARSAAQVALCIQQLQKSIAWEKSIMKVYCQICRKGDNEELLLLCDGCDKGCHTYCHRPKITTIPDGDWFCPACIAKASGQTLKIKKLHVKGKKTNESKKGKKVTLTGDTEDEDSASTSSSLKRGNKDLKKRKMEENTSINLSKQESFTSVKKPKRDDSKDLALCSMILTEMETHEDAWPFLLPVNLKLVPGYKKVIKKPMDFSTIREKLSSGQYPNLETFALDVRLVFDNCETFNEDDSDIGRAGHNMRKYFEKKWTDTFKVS
In short: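 Protein-peptide AlphaScreen: BAZ2B 50 nM, b-H3K14Ac 50 nM, 1x PBS pH 7.4 + 0.01% Tween-20. Preincubation 30 min RT; cpd 30 min RT (top 110 uM); beads 20 min RT, light-protected.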
O=C(CSCc1ccco1)c1ccc(Cl)s1 was tested, and the Potency was inconclusive: 89.1 µM [inhibitor, single point].
In the case of CC1CCc2c(sc(NC(=O)CCCOc3ccc(C(C)(C)C)cc3)c2C(N)=O)C1 (centres undefined), the “activity change, negative = inhibition” value is reported as inactive: 6.38%.
With CC1CC1C(=O)OCC(=O)Nc1ncc(Cl)cc1Cl (centres undefined) the Potency was inconclusive: 89.1 µM [inhibitor, single point].
CN(C)c1ccc(NC(=O)CCSc2nc(-c3ccco3)cc(C(F)(F)F)n2)cc1 was tested, and the Potency was inconclusive: 12.6 µM [inhibitor, full curve, poor fit].
For CN(CCOc1ccccc1)C(=O)c1ccc(OC2CCN(C(=O)C3CC3)CC2)cc1, the “activity change, negative = inhibition” value was inactive: -18.1%.
For COc1cccc(CN2CC(C(=O)N(C)Cc3nc4ccc(F)cc4[nH]3)CCC2=O)c1 (centres undefined), the “activity change, negative = inhibition” value was inactive: -3.01%.
For CCN1C(=O)[C@@H]2[C@@H](c3ccc(SC4CCCCC4)c(OC)c3)N3CCC[C@@]3(C(=O)OC)[C@@H]2C1=O, the Potency was inconclusive: 79.4 µM [inhibitor, single point].
Cn1c(=O)n(C)c2cc(NS(=O)(=O)c3ccc(Br)cc3)c(NCc3ccccc3)cc21 was tested, and the “activity change, negative = inhibition” value was inactive: -28.1%.
In the case of CCN(CC)CCCNC(=O)c1c(C)oc2ncn(CC(C)C)c(=O)c12, the “activity change, negative = inhibition” value is reported as inactive: 9.01% [at 57.1 µM].
O=C(CC(SCCO)c1ccc([N+](=O)[O-])cc1)c1ccco1 (centres undefined) was tested, and the Potency was inconclusive: 79.4 µM [inhibitor, single point].
In the case of COc1ccc(C(=S)N2CCN(C)CC2)cc1, the “activity change, negative = inhibition” value is reported as inactive: 11.1%.
In the case of O=C1CCCN1CCCNCC(=O)N1c2ccccc2Sc2ccccc21, the Potency is reported as active: 22.4 µM.
O=C(Cc1ccccc1)Nc1nccs1 was tested, and the “activity change, negative = inhibition” value was inactive: -20.9%.
CCN1/C(=C2\C(=O)N(C)C(=S)N2C)C=Cc2ccccc21 was tested, and the Potency was active: 50.1 µM.
For COc1ccc2[nH]c(C)c(CCNC(=S)Nc3cccc(C)c3C)c2c1, the Potency was active: 35.5 µM.
Cc1cc(NCCC(C)C)n2nc(C)c(-c3ccccc3)c2n1 was tested, and the “activity change, negative = inhibition” value was inactive: 48.2%.
In the case of OC(CNCCc1ccc(Cl)cc1)COCc1ccco1 (centres undefined), the Potency is reported as inconclusive: 89.1 µM [inhibitor, single point].
In the case of COC(=O)C1=C(N)OC2=C(C(=O)CC(C)(C)C2)C1c1ccccc1OC (centres undefined), the Potency is reported as inconclusive: 79.4 µM [inhibitor, single point].
With COc1ccc(Nc2cc(Sc3ccc(OC)cc3)ncn2)cc1 the Potency was inconclusive: 70.8 µM [inhibitor, single point].
With CC(C)CC1NC(=S)N(C2CCCCC2)C1=O (centres undefined) the “activity change, negative = inhibition” value was inactive: -16.1%.
With O=S1(=O)CCN(Cc2cccc(C(F)(F)F)c2)CC1 the “activity change, negative = inhibition” value was inactive: 5.86%.
For COC(=O)c1sc(-c2ccc(C(C)(C)C)cc2)cc1NC(=O)CSCC(=O)O, the “activity change, negative = inhibition” value was inactive: -28.4%.
CCOc1ccc(/C=N/OCC(=O)Nc2ccc3c(c2)OCO3)cc1 was tested, and the Potency was inconclusive: 79.4 µM [inhibitor, single point].
For CN1CCN(CCC(=O)Nc2ccc(C3CCCC3)cc2)CC1, the Potency was inconclusive: 79.4 µM [inhibitor, partial curve].
With Fc1ccccc1NC(=S)NCc1ccccc1 the “activity change, negative = inhibition” value was inactive: 5.36%.
In the case of O=Nc1c(-c2c(O)[nH]c3cc(Br)ccc23)[nH]c2ccccc12, the Potency is reported as active: 3.98 µM.
In the case of COc1ccc(CN2CCNC(=O)C2CC(=O)NC2CCCC2)cc1OC (centres undefined), the “activity change, negative = inhibition” value is reported as inactive: -30.9%.
For COc1ccc(-c2cc(C3CCN(Cc4cccc(C(F)(F)F)c4)CC3)[nH]n2)cc1, the Potency was inconclusive: 50.1 µM [inhibitor, partial curve].
In the case of Cc1ccc(C)c(CN2CCSCC2)c1, the Potency is reported as inconclusive: 89.1 µM [inhibitor, single point].
CC(C)c1ccc(NC(=O)CN2C(=O)COc3ccc(S(=O)(=O)Nc4ccccc4)cc32)cc1 was tested, and the Potency was inconclusive: 89.1 µM [inhibitor, single point].
In the case of CCCCn1c(N)c(N(CCC(C)C)C(=O)c2cc(S(=O)(=O)N3CCOCC3)ccc2F)c(=O)[nH]c1=O, the “activity change, negative = inhibition” value is reported as inactive: 15%.
With O=[N+]([O-])c1ccc2c(c1)CNc1ccccc1O2 the Potency was inconclusive: 63.1 µM [inhibitor, partial curve, poor fit].
CCc1ccc2nc(N(CCN(C)C)C(=O)c3ccc4ccccc4c3)sc2c1 was tested, and the Potency was inconclusive: 39.8 µM [inhibitor, full curve, poor fit].
Nc1ccc2c(C(F)(F)F)cc(C(F)(F)F)nc2n1 was tested, and the “activity change, negative = inhibition” value was inactive: -4.58%.
In the case of O=C1c2ccccc2-n2c1nc1ccccc1c2=O, the “activity change, negative = inhibition” value is reported as inactive: -30.5%.
With Cc1ccc(-c2n[nH]c(=S)n2/N=C/C=C/c2ccccc2[N+](=O)[O-])cc1 the Potency was inconclusive: 50.1 µM [inhibitor, partial curve].
COc1ccc(S(=O)(=O)c2ccccc2)cc1NS(=O)(=O)c1cccc(C(=O)O)c1 was tested, and the Potency was inconclusive: 89.1 µM [inhibitor, single point].
CC(C(=O)Nc1ccc(N(C)C)cc1)N1C(=O)c2ccccc2S1(=O)=O (centres undefined) was tested, and the Potency was inconclusive: 50.1 µM [inhibitor, partial curve].
With COc1cccc(C2=NN(C(=O)c3ccco3)C(c3ccco3)C2)c1 (centres undefined) the Potency was inconclusive: 39.8 µM [inhibitor, partial curve].
With O=C(NCCCN1CCCC1=O)C(=O)Nc1cccc(F)c1 the “activity change, negative = inhibition” value was inactive: -2.23%.
For O=S(=O)(Nc1cccc(-c2ccc(N3CCCCC3)nn2)c1)c1cccc(F)c1, the Potency was inconclusive: 79.4 µM [inhibitor, single point].
In the case of CC(=O)Nc1ccc(S(=O)(=O)N(C)CC(=O)OCC(=O)N2CCc3ccccc32)cc1, the “activity change, negative = inhibition” value is reported as inactive: 2.06%.
With CC(C)c1ccc(O)c(NC(=O)c2cncc(Br)c2)c1 the “activity change, negative = inhibition” value was inactive: 11.8%.
In the case of Nc1c(-c2nc(-c3ccc(Cl)cc3)cs2)c2ccccn2c1C(=O)c1ccc2c(c1)OCO2, the “activity change, negative = inhibition” value is reported as inactive: 3.04%.
With N[C@@H](Cc1ccccc1)c1nnc2sc(SCc3ccccc3)nn12 the Potency was inconclusive: 89.1 µM [inhibitor, single point].
In the case of Cc1c(C)n(Cc2ccc(Cl)cc2)c2ccc(C(=O)NCCc3ccc(S(N)(=O)=O)cc3)cc12, the “activity change, negative = inhibition” value is reported as inactive: -19%.
For COc1ccc(CNC(=O)c2ccc3c(c2)N(C)C(=O)CS3=O)cc1 (centres undefined), the “activity change, negative = inhibition” value was inactive: -0.511%.
For O=C(CSc1nnc2c3ccccc3c3ccccc3c2n1)Nc1ccccc1F, the Potency was active: 56.2 µM.
For CC(=O)c1sc(NC(=O)CCNC(=O)c2ccco2)nc1-c1ccccc1, the Potency was inconclusive: 79.4 µM [inhibitor, single point].
In the case of O=C(Oc1ccccc1C(=S)N1CCCCC1)c1cc([N+](=O)[O-])cc([N+](=O)[O-])c1, the Potency is reported as inconclusive: 14.1 µM [inhibitor, full curve].
With O=C(O)CCC(=O)Nc1sc2c(c1C(=O)Nc1cccc3ccccc13)CCCCC2 the Potency was inconclusive: 79.4 µM [inhibitor, single point].
Cc1c(C(c2ccc(N(C)C)cc2)c2c(C)n(C)n(-c3ccccc3)c2=O)c(=O)n(-c2ccccc2)n1C was tested, and the Potency was inconclusive: 50.1 µM [inhibitor, partial curve].
With O=c1cc(-c2ccccc2)oc2cc(OCc3ccccc3)cc(O)c12 the “activity change, negative = inhibition” value was inactive: -25.5%.
In the case of COc1ccc(N2CCN(C(=O)c3ccc(CS(=O)(=O)c4ccc(Br)cc4)o3)CC2)cc1, the Potency is reported as inconclusive: 22.4 µM [inhibitor, full curve, poor fit].
CCCn1c(N2CCN(CC(=O)Nc3ccc4c(c3)OCCO4)CC2)nc2ccccc21 was tested, and the Potency was inconclusive: 89.1 µM [inhibitor, single point].
With C=CCNC(=O)/C(C#N)=C\c1cc(Cl)c(O)c(OCC)c1 the “activity change, negative = inhibition” value was inactive: -15.1%.
In the case of Cc1cccc(NC(=S)N=Nc2c(O)[nH]c3ccccc23)c1, the Potency is reported as inconclusive: 10 µM [inhibitor, full curve].
In the case of Cc1cccc(N2C(=O)CSC23C(=O)N(Cc2cccc(C(F)(F)F)c2)c2ccccc23)c1 (centres undefined), the “activity change, negative = inhibition” value is reported as inactive: -0.0739% [at 57.1 µM].
Cc1ccc(CNC(=O)N2CCN(S(=O)(=O)c3ccccc3)CC2)cc1 was tested, and the “activity change, negative = inhibition” value was inactive: 6.41%.
CCOc1c(Cl)cc(C(=O)Nc2ccccc2C(=O)O)cc1Cl was tested, and the Potency was inconclusive: 89.1 µM [inhibitor, single point].
In the case of CCCCC(=O)NNC(=S)NC(=O)c1cccc([N+](=O)[O-])c1, the Potency is reported as inconclusive: 89.1 µM [inhibitor, single point].
With O=C(O)CNC(=O)/C(=C/c1ccco1)NC(=O)/C=C/c1ccccc1 the Potency was inconclusive: 89.1 µM [inhibitor, single point].
With Cc1nonc1NC(=O)CSc1nnnn1-c1ccccc1 the “activity change, negative = inhibition” value was inactive: 1.51%.
COc1ccc(Br)cc1/C=N/NC(=O)c1nc(-c2ccccc2)n2c1CCCCC2 was tested, and the Potency was inconclusive: 22.4 µM [inhibitor, full curve].
For CCOC(=O)C1CCC(CN(Cc2ccc(Cl)cc2)S(=O)(=O)c2ccc(Br)cc2)CC1 (centres undefined), the “activity change, negative = inhibition” value was inactive: 14.5%.
O=C1C(=O)N(CCCn2ccnc2)C(c2ccc([N+](=O)[O-])cc2)/C1=C(\O)c1ccc2c(c1)OCCO2 (centres undefined) was tested, and the Potency was inconclusive: 89.1 µM [inhibitor, single point].
COc1ccc(NC(=O)CSc2sc3c(O)cc(=O)[nH]c3c2C#N)c(OC)c1 was tested, and the Potency was active: 79.4 µM.
For CS(=O)(=O)c1ccc2nc(NC(=O)c3ccc(NS(=O)(=O)c4ccc(F)c(F)c4)cc3)sc2c1, the Potency was inconclusive: 79.4 µM [inhibitor, single point].
For OCCC1CN(Cc2ccc(-c3ccco3)cc2)CCN1Cc1ccsc1 (centres undefined), the Potency was inconclusive: 89.1 µM [inhibitor, single point].
With O=C(Cc1cccs1)N/N=C/C=C/c1ccco1 the Potency was active: 44.7 µM.
For Cc1ccc(Cl)cc1NC(=O)CSC1=Nc2ccccc2C2=NC(Cc3ccccc3)C(=O)N12 (centres undefined), the “activity change, negative = inhibition” value was inactive: -5.21%.
With C=C(C)Cn1c(-c2ccncc2)n[nH]c1=S the Potency was inconclusive: 79.4 µM [inhibitor, single point].
For O=C(NC(=S)N1CCN(Cc2ccccc2)CC1)c1cccnc1, the Potency was inconclusive: 89.1 µM [inhibitor, single point].
For COc1ccc(N2CCN(C(=O)c3ccc4c(c3)[nH]c(=S)n3c5ccccc5nc43)CC2)cc1, the Potency was inconclusive: 70.8 µM [inhibitor, single point].
